Test results taken from patent US8883120B2, “Polypeptides having affinity for HER2” (Affibody AB, priority 2007, dated 2014).

What was measured:
[1] = system: primate Ig (pool of primate serum); assay: In vitro antigenicity (IVA) ELISA; conditions: serum dilution value at OD 0.3 related to standard Z00342 set to 100; below 100 = lower primate Ig-binding
[2] = biological target: T1, recombinant human HER2/Fc (ErbB2/Fc) chimeric protein (Homo sapiens, UniProt P04626); assay: Surface Plasmon Resonance (Biacore 2000) binding kinetics on immobilized HER2/Fc; conditions: 1:1 Langmuir model with mass transfer correction; for ka: association rate constant; for kd: dissociation rate constant
T1 construct: consisting of the extracellular domain of ErbB2 (HER2, Met^1-Thr^652); purchased R&D Systems 1129-ER

[3] = system: HER2 overexpressing SKOV-3 tumor xenografts; assay: Biodistribution of 111In-labeled Affibody molecule in mice bearing SKOV-3 xenografts; format: in vivo, BALB/c nu/nu mice; conditions: for Tumor uptake: 1 μg (100 kBq) i.v.
[4] = system: HER2 expressing SKOV-3 xenograft tumors; assay: Gamma camera imaging, 111In-labeled Affibody molecule, SKOV-3 xenografts; format: in vivo, BALB/c nu/nu mice; conditions: 30 minutes and 4 hours p.i., 3 μg (4.5 MBq)
[5] = system: HER2 negative A431 xenografts; assay: Gamma camera imaging, 111In-labeled Affibody molecule, A431 xenografts (control); format: in vivo, BALB/c nu/nu mice; conditions: 4 h p.i., 3 μg (4.5 MBq)

Substance | IVA-Value [1] | ka [2] | kd [2] | tolerability of injections ([3]; 1 μg (100 kBq) in tail vein) | Tumor uptake ([3]; 0.5 hour p.i.) | Kidney uptake ([3]; 1 hour p.i.) | tumor-to-blood ratio ([3]; 1 hour p.i.) | Tumor uptake ([3]; 1 hour p.i.) | tumor-to-blood ratio ([3]; 4 hour p.i.) | tumor-to-liver ratio ([3]; 4 hours p.i.) | Tumor uptake ([3]; 4 hours p.i.) | reduction of tumor uptake by pre-injection of excess unlabeled Affibody molecule (blocking experiment) ([3]; 4 hours p.i., 0.9 mg unlabeled NEM-blocked molecule II s.c. 50 min before) | Kidney uptake ([3]; 24 hours p.i.) | tumor-to-blood ratio ([3]; 24 hours p.i.) | Tumor uptake ([3]; 24 hours p.i.) | gamma camera imaging of tumor targeting [4] | uptake of radioactivity in HER2-negative tumor (gamma camera image) [5]
Affibody® molecule II with DOTA: Affibody molecule II (SEQ ID NO:5) with maleimido-mono-amide-DOTA coupled to the C-terminal cysteine | 6 | 1.27E+07* 1/Ms | 8.10E−04* 1/s |  |  |  |  |  |  |  |  |  |  |  |  |  | 
Affibody® molecule II with NEM: Affibody molecule II (SEQ ID NO:5) whose C-terminal cysteine SH-group is blocked with N-ethylmaleimide (NEM) |  | 1.23e+07 M⁻¹ s⁻¹ | 0.000741 s⁻¹ |  |  |  |  |  |  |  |  |  |  |  |  |  | 
^111In-labeled Affibody® molecule II with DOTA: Affibody molecule II with DOTA coupled to the C-terminal cysteine, radiolabeled with 111In |  |  |  | tolerated well | 13±2 % IA/g | 186±24 % IA/g | 16 | 17±2 % IA/g | 88 | 10 | 15±3 % IA/g | 86% | 144±13 % IA/g | 275 | 11±4 % IA/g | high specific tumor targeting | negligible uptake

Marks after values point to notes of the source that are not given here.
